# Data as given in the supplement of paper PMC6135742.
# Where a name gives a salt, the structure may show the parent alone. ± gives the standard deviation of the averaged measurements. In all, about 2,600 compounds were measured (“MBP+ mature oligodendrocyte number relative to DMSO vehicle control”: median about -0.34, highest 2% from about 13 on). The list shows a part of the results.
# System: jimpy (Plp1 jimpy) mouse iPSC-derived oligodendrocyte progenitor cells
# Test: MBP+ mature oligodendrocyte number relative to DMSO vehicle control (SDs above negative control mean); higher = more surviving jimpy oligodendrocytes (rescue)
# Conditions: 10 µM; 3 days
# Protocol: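 Primary phenotypic screen of >3,000 bioactive compounds (Selleck L1700 and Sigma LO1280 libraries) at a single dose of 10 µM. Compounds were added to jimpy (Plp1 mutant) mouse iPSC-derived OPCs at the start of thyroid hormone-induced oligodendrocyte differentiation, one well per compound in 384-well plates. After 3 days cells were stained for MBP, Sox10 and DAPI and imaged with an Operetta system. MBP+ oligodendrocyte number and total cell number were expressed as the number of SDs above the mean of the DMSO negative control on the same plate (n=16 control wells per plate). Hits were defined as >=4 SD for oligodendrocytes and >=2 SD for total cells.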
row,Structure (SMILES),MBP+ mature oligodendrocyte number
1,CN(c1nc2ccccc2s1)C1CCN(C[C@H](O)COc2ccc(F)c(F)c2)CC1 [Lubeluzole dihydrochloride],6.93
2,CC(C)(C)NCC(O)c1ccccc1Cl (stereo not drawn) [Tulobuterol hydrochloride],-1.5
3,CC1(C(=O)O)C2CCC(O2)C1(C)C(=O)O (stereo not drawn) [Cantharidic Acid],-3.3
4,Cc1cccc([C@H](C)c2c[nH]cn2)c1C [Dexmedetomidine],1.69
5,COc1cc([C@@H]2c3cc4c(cc3[C@H](O)[C@H]3COC(=O)[C@H]23)OCO4)cc(OC)c1OC [Podophyllotoxin],< -3.97
6,CC[C@H]1CN2CCc3cc(OC)c(OC)cc3[C@@H]2C[C@@H]1C[C@H]1NCCc2cc(OC)c(OC)cc21 [Emetine dihydrochloride hydrate],-4.41
7,C[C@@H]1CC[C@H]2[C@@H](C)C(=O)O[C@@H]3O[C@@]4(C)CC[C@@H]1[C@]32OO4 [Artemisinin],-0.589
8,CS(=N)(=O)CC[C@H](N)C(=O)O (stereo partly drawn) [L-Methionine sulfoximine],-0.794
9,CCC1(c2cccc(O)c2)CCCCN(C)C1 (stereo not drawn) [Meptazinol HCl],-1.01
10,"Ic1ccccc1CNC1C2CCN(CC2)C1C(c1ccccc1)c1ccccc1 [L-703,606 oxalate salt hydrate]",< -3.97
11,CCCN(CCC)CCc1ccc(O)c(O)c1 [Dipropyldopamine hydrobromide],-1.64
12,CCC(COC(=O)c1cc(OC)c(OC)c(OC)c1)(c1ccccc1)N(C)C (stereo not drawn) [Trimebutine],10.8
13,C/C=C(\C)C(=O)N[C@@H](c1ccccc1)[C@@H](O)C(=O)O[C@H]1C[C@@]2(O)[C@@H](OC(=O)c3ccccc3)[C@@H]3[C@]4(OC(C)=O)CO[C@@H]4C[C@H](O)[C@@]3(C)C(=O)[C@H](OC(C)=O)C(=C1C)C2(C)C [Cephalomannine],-2.96
14,NCCc1c[nH]c2ccc(O)cc12 [Serotonin HCl],-1.54
15,NCCc1c[nH]c2ccc(O)cc12 [Serotonin hydrochloride],-1.33
16,COc1ccc(C(CN(C)C)C2(O)CCCCC2)cc1 (stereo not drawn) [Venlafaxine hydrochloride],-0.753
17,COc1ccc(C(CN(C)C)C2(O)CCCCC2)cc1 (stereo not drawn) [Venlafaxine],1.33
18,CN(C)C(=O)Oc1cccc([N+](C)(C)C)c1 [Neostigmine bromide],0.0294
19,CNC(=O)Oc1ccc2c(c1)[C@]1(C)CCN(C)[C@@H]1N2C [(-)-Physostigmine],-0.387
20,"CC(N)c1cccc(Cl)c1Cl (racemic) [(±)-2,3-Dichloro-alpha-methylbenzylamine hydrochloride]",-1.28
21,Cc1sc2c(c1C)C(c1ccc(Cl)cc1)=N[C@@H](CC(=O)Nc1ccc(O)cc1)c1nnc(C)n1-2,-4.64
22,CCc1c(C(=O)C(N)=O)c2c(OCC(=O)O)cccc2n1Cc1ccccc1,-1.55
23,CCC1=C[C@H]2CN3CCc4c([nH]c5ccccc45)[C@](C(=O)OC)(C2)[C@H]13 [Catharanthine],0.422
24,C#CCOC(=O)C1=CCCN(C)C1 [Arecaidine propargyl ester hydrobromide],0.824
25,CNCC(O)c1ccc(O)cc1 (stereo not drawn) [Synephrine],0.451

row,Structure (SMILES),MBP+ mature oligodendrocyte number
1,CNCC(O)c1ccc(O)cc1 (stereo not drawn) [Synephrine HCl],-0.332
2,CN1[C@@H]2CC[C@H]1C[C@@H](OC(=O)C(CO)c1ccccc1)C2 (stereo partly drawn) [Atropine],-1.28
3,CN1[C@@H]2CC[C@H]1C[C@@H](OC(=O)C(CO)c1ccccc1)C2 (stereo partly drawn) [Atropine sulfate],2.28
4,CCOc1ccccc1-n1c(C(C)N2CCN(C(=O)COc3ccc(Cl)cc3)CC2)nc2ccccc2c1=O (stereo not drawn) [Erastin],-0.0158
5,CC(C)C[C@H]1C(=O)N2CCC[C@H]2[C@]2(O)O[C@](NC(=O)[C@@H]3C=C4c5cccc6[nH]c(Br)c(c56)C[C@H]4N(C)C3)(C(C)C)C(=O)N12 [(+)-Bromocriptine methanesulfonate],-2.83
6,COc1cc(C(O)CN)ccc1O (racemic) [(±)-Normetanephrine hydrochloride],-1.19
7,C[C@]12CCC(=O)C(O)=C1CC[C@@H]1[C@@H]2CC[C@]2(C)C(=O)CC[C@@H]12 [Formestane],-0.276
8,c1ccc(C2CC2)c(OCC2=NCCN2)c1 [Cirazoline hydrochloride],1.13
9,CN1[C@@H]2CC[C@H]1C[C@@H](OC(c1ccccc1)c1ccccc1N)C2 (stereo partly drawn) [Aminobenztropine],-0.825
10,N#C[C@H](O[C@@H]1O[C@H](C(=O)O)[C@@H](O)[C@H](O)[C@H]1O)c1ccccc1 [Laetrile],1.29
11,NCC(CP(=O)(O)O)c1ccc(Cl)cc1 (stereo not drawn) [Phaclofen],1.11
12,O=S1(=O)N(CCN2CC=C(c3c[nH]c4cc(F)ccc34)CC2)c2cccc3c2N1CCC3,3.87
13,CCN(CC)C(=O)c1ccc(C2=CC3(CCNCC3)Oc3cccc(O)c32)cc1,-0.676
14,CN1[C@@H]2C[C@@H](OC(=O)[C@H](CO)c3ccccc3)C[C@H]1[C@H](O)C2 (racemic) [(+/-)-Anisodamine],-1.33
15,"Clc1ccc(N2CCN(Cc3c[nH]c4ncccc34)CC2)cc1 [L-745,870 hydrochloride]",-3.38
16,NCCCNCCSP(=O)(O)O [Amifostine],-0.433
17,O=c1[nH]c2ccc(Cl)cc2c(N[C@@H]2CN3CCC2CC3)c1-c1nc2ccccc2[nH]1,< -6.01
18,NCCc1c[nH]c2ccc(C(N)=O)cc12 [5-Carboxamidotryptamine maleate],-0.125
19,C[C@@H]1[C@H](O)[C@@H](C)/C=C/C=C/CC/C=C/C=C/C=C/C=C/[C@H](O[C@H]2O[C@@H](C)[C@H](O)[C@@H](N)[C@H]2O)C[C@@H]2O[C@](O)(C[C@@H](O)[C@H](O)CC[C@@H](O)C[C@@H](O)C[C@@H](O)CC(=O)O[C@H]1C)C[C@H](O)[C@H]2C(=O)O [Nystatin (Fungicidin)],7.36
20,CC(C)NCC(O)c1ccccc1Cl (stereo not drawn) [Clorprenaline HCl],2.18
21,Cc1cc2c(C(C)C)c(O)c(O)c(C=O)c2c(O)c1-c1c(C)cc2c(C(C)C)c(O)c(O)c(C=O)c2c1O [Gossypol],-1.91 ± 1.8
22,CCCN1CC[C@@H]2c3cc(O)ccc3CC[C@@H]21 (racemic) [cis(+/-)-8-OH-PBZI hydrobromide],9.2
23,O=c1[nH]c2ccccc2n1C1CCN(CCCC(c2ccc(F)cc2)c2ccc(F)cc2)CC1 [Pimozide],< -3.97
24,O=c1ccc2[nH]cc(C3=CCNCC3)c2[nH]1,2.18
25,C=CCN1CC[C@]23CCCC[C@H]2[C@H]1Cc1ccc(O)cc13 [Levallorphan tartrate],-1.77

row,Structure (SMILES),MBP+ mature oligodendrocyte number
1,CN(C)C(=O)Oc1ccc[n+](C)c1 [Pyridostigmine Bromide],-0.917
2,CN(C)C(=O)Oc1ccc[n+](C)c1 [Pyridostigmine bromide],0.824
3,CN1CCN(c2nc3ccccc3nc2Cl)CC1,-2.59
4,CCN1CC2(OC(=O)c3ccccc3NC(C)=O)CCC(OC)C34C1C(CC23)C1(O)CC(OC)C2CC4C1(O)C2OC (stereo not drawn) [Lappaconite HBr],0.619
5,Cc1ccc2c(c1)C1(CCN(CCc3nc(-c4ccccc4)oc3C)CC1)OC(=O)N2,-2.6
6,C[C@@]12C(=O)OC(=O)[C@]1(C)[C@H]1CC[C@@H]2O1 [Cantharidin],-3.3
7,CCC1(C)CC(=O)NC(=O)C1 [Bemegride],3.45
8,Cc1ccccc1-n1c(Cn2ncc3c(N)ncnc32)nc2cccc(C)c2c1=O,1.18
9,COc1cc(OC)c(OC)cc1C=O [Asaraldehyde],-0.892
10,NC(CP(=O)(O)O)C(=O)O (racemic) [(±)-2-Amino-3-phosphonopropionic acid],-0.000818
11,"NC1CCc2cc(O)c(O)cc2C1 (stereo not drawn) [6,7-ADTN hydrobromide]",-1.54
12,OC(c1ccccc1)(c1ccccc1)C1CCNCC1 [Azacyclonol],-1.56
13,"CCCC[N+]1(C)[C@@H]2C[C@@H](OC(=O)[C@H](CO)c3ccccc3)C[C@H]1[C@@H]1O[C@@H]12 (single isomer, unassigned; (-)) [Butylscopolamine Bromide]",3.92
14,"CCCC[N+]1(C)[C@@H]2C[C@@H](OC(=O)[C@H](CO)c3ccccc3)C[C@H]1[C@@H]1O[C@@H]12 (single isomer, unassigned; (-)) [(-)-Scopolamine,n-Butyl-, bromide]",-0.925
15,c1ccc2sc(C3(N4CCCCC4)CCCCC3)cc2c1 [BTCP hydrochloride],-0.865
16,N#C/C(=C\c1ccc(O)c(O)c1)C(N)=S [Tyrphostin 47],1.07
17,COc1ccc(OC)c(C(O)C(C)N)c1 (stereo not drawn) [Methoxamine hydrochloride],-0.872
18,Cc1sc2c(c1C)C(c1ccc(Cl)cc1)=N[C@@H](CC(=O)OC(C)(C)C)c1nnc(C)n1-2,< -6.35
19,C[C@@H]1O[C@@H](O[C@H]2C[C@@H](O)[C@]3(CO)[C@H]4[C@H](O)C[C@]5(C)[C@@H]([C@@H]6COC(=O)C6)CC[C@]5(O)[C@@H]4CC[C@]3(O)C2)[C@H](O)[C@H](O)[C@H]1O [Dihydroouabain],2.86
20,CCCN1CCO[C@@H]2c3cc(O)ccc3OC[C@H]21,0.899
21,Cc1ccc(-n2nccn2)c(C(=O)N2CCN(c3nc4cc(Cl)ccc4o3)CC[C@H]2C)c1 [Suvorexant (MK-4305)],8.26
22,CCCCCCCCCCCCCCCC[n+]1ccccc1 [Cetylpyridinium Chloride],-5.25
23,CC(=O)OCC1=C(C(=O)[O-])N2C(=O)[C@@H](NC(=O)CCC[C@@H](N)C(=O)[O-])[C@H]2SC1.[Zn+2] [Cephalosporin C zinc salt],-0.943
